About 4,700 (1.2%) of roughly 390,000 compounds were called active. Not shown: some 4% with an inconclusive outcome. The call rests on the fitted dose curve; in most records, active means well fitted inhibition curve with a large enough effect; inconclusive means small, poorly fitted or top-dose-only effect, or another doubt; inactive means no such curve, though single readings can be large or run the other way. This is a selection; strong and weak results do not stand in their true shares.
molecular target: DNA polymerase eta (Homo sapiens) (UniProt Q9Y253); assay: qHTS for Inhibitors of Polymerase Eta; conditions: recombinant Pol eta, fluorescent DNA replication assay; series mostly up to 114 µM; activity change, negative = inhibition: at the top concentration
Sequence of UniProt Q9Y253 (Q9Y253 whole entry, looked up): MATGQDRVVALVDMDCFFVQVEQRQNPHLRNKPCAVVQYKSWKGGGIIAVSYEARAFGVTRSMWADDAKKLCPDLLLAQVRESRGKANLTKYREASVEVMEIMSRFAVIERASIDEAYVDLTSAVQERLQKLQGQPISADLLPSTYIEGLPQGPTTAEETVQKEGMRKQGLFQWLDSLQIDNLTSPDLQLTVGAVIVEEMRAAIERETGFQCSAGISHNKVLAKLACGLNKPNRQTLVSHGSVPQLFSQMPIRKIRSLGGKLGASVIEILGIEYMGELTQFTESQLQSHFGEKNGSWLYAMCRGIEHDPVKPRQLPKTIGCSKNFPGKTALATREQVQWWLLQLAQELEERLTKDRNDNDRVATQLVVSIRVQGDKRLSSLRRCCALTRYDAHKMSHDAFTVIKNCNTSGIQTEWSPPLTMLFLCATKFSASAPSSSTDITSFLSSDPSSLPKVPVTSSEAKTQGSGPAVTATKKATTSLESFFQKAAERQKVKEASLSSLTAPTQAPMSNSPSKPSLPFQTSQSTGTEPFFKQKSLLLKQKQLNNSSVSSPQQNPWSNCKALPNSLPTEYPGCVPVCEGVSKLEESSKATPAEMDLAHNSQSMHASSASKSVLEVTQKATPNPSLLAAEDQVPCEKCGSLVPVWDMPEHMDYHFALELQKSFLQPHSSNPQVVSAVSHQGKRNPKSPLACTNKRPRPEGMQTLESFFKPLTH
Procedure, shortened: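 Pol eta (10 nM) was preincubated with compounds for 15 min at room temperature, after which fluorescent replication substrate (50 nM final) was added to start the reaction. Fluorescence was read kinetically at 0 and 10 min.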
On the % scale 0 is the no-effect control and ±100 the full control effect; potency means the concentration at half of the fitted maximal effect.

SMILES | activity change, negative = inhibition | Potency
COc1ccc2c(c1)c(CC(=O)Nc1ccc(C(C)=O)cc1)c(C)n2C(=O)c1ccc(Cl)cc1 | inactive: -18.8% | 
CCc1ccc(NC(=O)C2CCCN2S(=O)(=O)c2ccc3c(c2)n(C)c(=O)c(=O)n3C)cc1 (stereo unspecified) |  | inactive
CN=C1SC(CC(=O)Nc2cccc(Cl)c2Cl)C(=O)N1C (stereo unspecified) | inactive: 3.08% | 
CCN1CCN(c2cc(C)c3cc(NC(=O)c4ccc(OC)c(OC)c4)ccc3n2)CC1 | inactive: -29.7% | 
C=CC[C@@H](Cc1ccc(F)cc1)C(=O)OC[C@@H]1CCCN1C(=O)[C@@H](CC=C)CC(=O)N[C@@H](CO)Cc1ccccc1 | inactive: -12.5% | 
O=C(NC(=S)Nc1cccc(-c2ccc(CO)o2)c1)c1cccs1 | inactive: 19.5% | 
CCCc1cc2c(=O)c(-c3nc4ccccc4s3)c(COCC(=O)O)oc2cc1O |  | active: 79.4 µM
COc1cc(/C=N/NC(=O)[C@H](Cc2c[nH]c3ccccc23)NC(=O)OCC(C)C)cc([N+](=O)[O-])c1O | inactive: 1.8% | 
Cn1nc(C(=O)NCc2cccc(Cl)c2)c2c1-c1ccccc1S(=O)(=O)C2 | inactive: -29.1% | 
O=C(COC(=O)c1ccc([N+](=O)[O-])s1)NCc1ccc(F)cc1 |  | active: 79.4 µM
CC(=O)c1cccc(NC(=O)N2CCCC2C(=O)NCCC(C)C)c1 (stereo unspecified) | inactive: 1.21% | 
Cn1c(O)c(/C=C2\C=NN=C2c2ccccc2)sc1=S | inactive: 25.2% | 
Cc1nnc(SCC2=C(C(=O)O)N3C(=O)C(NC(=O)Cn4nc(C(F)F)c(Cl)c4C)C3SC2)s1 (stereo unspecified) |  | active: 20 µM
O=C(CSc1nnc2ccc(-c3ccncc3)nn12)N1CCCCC1 | inactive: 30.5% | 
S=c1[nH]nc(-c2ccc(Cl)cc2)n1-c1ccc(Cl)cc1 | inactive: -7.97% | 
O=C(O)C(CCCCNS(=O)(=O)c1ccc(F)cc1)NS(=O)(=O)c1ccc(F)cc1 (stereo unspecified) | inactive: 4% | 
CCOC(=O)N(O)c1ccc(C=Cc2ccccc2)cc1 |  | active: 12.6 µM
COc1ccc(S(=O)(=O)N2CCCC(C(=O)NC3CCCCC3)C2)cc1 (stereo unspecified) | inactive: 0.048% | 
COc1ccc(NC(=O)CN2C(=O)c3ccccc3Sc3ccc(C(=O)N4CCOCC4)cc32)c(OC)c1 | inactive: -13.7% | 
CC(=O)Nc1ccc2nc3c(=O)n(C)c(=O)n(C)c3nc2c1 |  | active: 35.5 µM
CCc1ccccc1NC(=O)Cn1nnc(C(=O)NCc2cccs2)c1N | inactive: -26.3% | 

SMILES | activity change, negative = inhibition | Potency
C[C@]12C(=O)N(c3ccccc3)C(=O)N1[C@H]1c3ccccc3OC[C@@H]1[C@H]2c1ccccc1 | inactive: -19.3% | 
CCn1c(/C=C2\C(=O)N(C)c3ccccc32)nc2ccccc2c1=O | inactive: -18% | 
O=C(CCl)N1N=C(c2ccco2)CC1c1ccco1 (stereo unspecified) |  | active: 10 µM
CCOC(=O)Nc1ccc(S(=O)(=O)Nn2cnnc2)cc1 | inactive: 67.6% | 
Cc1cc(NS(=O)(=O)c2ccc(NC(=O)COc3ccccc3[N+](=O)[O-])cc2)no1 |  | active: 20 µM
CC(C)C1(CCNC(=O)c2cccs2)CCOC(C)(C)C1 (stereo unspecified) | inactive: 42.3% | 
O=C1Cc2cccc(=O)c(O)c2C(=O)O1 |  | active: 8.91 µM
CCCCC[C@H](O)/C=C/C1=C(CCCCCCC(=O)O)C(=O)CC1 |  | active: 25.1 µM
Cc1[nH]nc(Nc2ccc(Br)cc2)c1[N+](=O)[O-] | inactive: 25.1% | 
O=c1/c(=C/c2ccco2)sc2nc(-c3ccccc3Br)nn12 |  | active: 15.8 µM
S=c1[nH]nc(-c2cc(-c3ccccc3)n[nH]2)n1/N=C/C=C/c1ccccc1 | inactive: 43.1% | 
CC1(C)Cc2nc3sc4c(NCCO)ncnc4c3cc2CS1 | inactive: 41.6% | 
CCCCn1c(NS(=O)(=O)c2ccccc2)c(S(=O)(=O)c2ccc(C)cc2)c2nc3ccccc3nc21 |  | active: 44.7 µM
OCCN1CCN(CC#CCC(c2ccccc2)c2ccccc2)CC1 | inactive: 29.5% | 
O=C1C=C(c2ccccc2)C[C@H](c2cccs2)[C@H]1n1cnc([N+](=O)[O-])c1 | inactive: 1.88% | 
Cc1nc2nc(C)n(-c3ccccc3)c2s1 |  | active: 14.1 µM
Cc1cc(S(=O)(=O)Nc2cccnc2)c(C)s1 | inactive: 4.99% | 
O=C(CCN1CCN(c2ccccc2)CC1)N/N=C/c1ccc(O)c(O)c1O |  | active: 22.4 µM
N#C/C(=C\c1cccc([N+](=O)[O-])c1)c1nnc2n1CCCCC2 | inactive: -23.2% | 
CNc1ccc(Br)cc(C(=O)/C=C/c2ccc3c(c2)OCO3)c1=O |  | active: 10 µM
Cc1cc(C)c(CN2CCN(C(=O)Cn3ccc(NC(=O)OCc4ccccc4)nc3=O)CC2)c(C)c1 | inactive: 22.5% | 

SMILES | activity change, negative = inhibition | Potency
CCCCCCN1C[C@H](n2cc(C3CC3)nn2)[C@@H](O)C[C@@H]1c1ccccc1 | inactive: -25.3% | 
CCCCCn1c(SCC(=O)c2ccccc2)nc2cc(C(=O)NCC3CCCO3)ccc2c1=O (stereo unspecified) | inactive: 32.9% | 
COc1ccc2c(c1)sc1nc(=O)ccn12 | inactive: -3.38% | 
CCCCCCSc1ccc([C@@H]2[C@@H]3C(=O)N(CC)C(=O)[C@@H]3[C@]3(C(=O)OC)CCCCN23)cc1OC | inactive: -15.2% | 
CCOc1cc(/C=C2/C(=O)ON=C2C)ccc1OCc1ccccc1 | inactive: -26.1% | 
Cc1ccc(C)c(N2CCN(C(=O)c3cc(S(=O)(=O)N4CCCC4)cn3C)CC2)c1 | inactive: -9.86% | 
CCCc1ccc(OCC(O)CN2CCN(c3ccccc3)CC2)cc1 (stereo unspecified) | inactive: -18.6% | 
CN(CC(=O)N1CCN(c2ccccc2F)CC1)S(=O)(=O)c1cnc[nH]1 | inactive: 15.1% | 
O=C(CCNC(=O)Cn1ccc2ccccc2c1=O)NCCN1CCN(c2cccc(Cl)c2)CC1 | inactive: -6.5% | 
C=CC[C@H](CC(=O)OC(C)(C)C)C(=O)OC[C@H]1CCCN1C(=O)[C@H](CC=C)CC(=O)N(CCO)Cc1ccccc1 | inactive: -16.9% | 
COc1cc(C(=S)N2CCOCC2)ccc1OC(=O)/C=C/c1ccco1 | inactive: 50.6% | 
CC(=O)c1ccc(N2CCN(c3ccc4cc(S(=O)(=O)N5CCC(C)CC5)ccc4n3)CC2)cc1 | inactive: -8.77% | 
C=CC[C@H](CC(=O)N(CCO)Cc1ccccc1)C(=O)N[C@H](COC(=O)[C@@H](CC=C)CC(=O)OC(C)(C)C)Cc1c[nH]c2ccccc12 | inactive: -21.5% | 
Cc1cc(-c2nnc(SCC(=O)Nc3ccccn3)o2)no1 | inactive: 15.8% | 
O=C1NC(=S)N/C1=C\c1cccnc1 | inactive: -8.51% | 
COc1ccc(C(=O)CSc2cc(C)[nH]c(=O)n2)cc1 |  | active: 20 µM
O=C(/C=C/c1ccco1)NC(=S)Nc1ccccc1O | inactive: -8.21% | 
CNC(=O)NNC(=O)c1csc(Cc2c(Cl)sc3ccc(Cl)cc23)n1 | inactive: 18.3% | 
CC(/C=C1\SC(=S)N(C(C(=O)O)C(C)C)C1=O)=C\c1ccccc1 (stereo unspecified) | inactive: -31.7% | 

From PubChem BioAssay AID588591 (National Center for Advancing Translational Sciences (NCATS), 2011)
